In PubChem BioAssay AID504339 (National Center for Advancing Translational Sciences (NCATS), 2011):
About 17,000 (4.4%) of roughly 390,000 compounds were called active. Inconclusive results, whose numbers are uncertain, are shown with a selection of clear calls. The call rests on the fitted dose curve; in most records, active means well fitted inhibition curve with a large enough effect; inconclusive means small, poorly fitted or top-dose-only effect; inactive means no such curve, though single readings can be large or run the other way. A potency beside an inconclusive call is a rough fit, not a confirmed value. Some structures have more than one record in an assay (separate samples or runs), and their calls can disagree.

Molecular target: Lysine-specific demethylase 4A (Homo sapiens) (UniProt O75164)
Assay: qHTS Assay for Inhibitors of JMJD2A-Tudor Domain; further: nearly all actives have a fitted effect of over 50% in size
Details: AlphaScreen JMJD2A-Tudor / H3K4me3 peptide binding; activity change, negative = inhibition: at 114 µM (top of the series)
On the % scale 0 is the no-effect control and ±100 the full control effect; potency means the concentration at half of the fitted maximal effect; tags describe the fitted curve by direction and shape.

Chain of UniProt O75164 (O75164 whole entry, looked up, the tested form may be a part): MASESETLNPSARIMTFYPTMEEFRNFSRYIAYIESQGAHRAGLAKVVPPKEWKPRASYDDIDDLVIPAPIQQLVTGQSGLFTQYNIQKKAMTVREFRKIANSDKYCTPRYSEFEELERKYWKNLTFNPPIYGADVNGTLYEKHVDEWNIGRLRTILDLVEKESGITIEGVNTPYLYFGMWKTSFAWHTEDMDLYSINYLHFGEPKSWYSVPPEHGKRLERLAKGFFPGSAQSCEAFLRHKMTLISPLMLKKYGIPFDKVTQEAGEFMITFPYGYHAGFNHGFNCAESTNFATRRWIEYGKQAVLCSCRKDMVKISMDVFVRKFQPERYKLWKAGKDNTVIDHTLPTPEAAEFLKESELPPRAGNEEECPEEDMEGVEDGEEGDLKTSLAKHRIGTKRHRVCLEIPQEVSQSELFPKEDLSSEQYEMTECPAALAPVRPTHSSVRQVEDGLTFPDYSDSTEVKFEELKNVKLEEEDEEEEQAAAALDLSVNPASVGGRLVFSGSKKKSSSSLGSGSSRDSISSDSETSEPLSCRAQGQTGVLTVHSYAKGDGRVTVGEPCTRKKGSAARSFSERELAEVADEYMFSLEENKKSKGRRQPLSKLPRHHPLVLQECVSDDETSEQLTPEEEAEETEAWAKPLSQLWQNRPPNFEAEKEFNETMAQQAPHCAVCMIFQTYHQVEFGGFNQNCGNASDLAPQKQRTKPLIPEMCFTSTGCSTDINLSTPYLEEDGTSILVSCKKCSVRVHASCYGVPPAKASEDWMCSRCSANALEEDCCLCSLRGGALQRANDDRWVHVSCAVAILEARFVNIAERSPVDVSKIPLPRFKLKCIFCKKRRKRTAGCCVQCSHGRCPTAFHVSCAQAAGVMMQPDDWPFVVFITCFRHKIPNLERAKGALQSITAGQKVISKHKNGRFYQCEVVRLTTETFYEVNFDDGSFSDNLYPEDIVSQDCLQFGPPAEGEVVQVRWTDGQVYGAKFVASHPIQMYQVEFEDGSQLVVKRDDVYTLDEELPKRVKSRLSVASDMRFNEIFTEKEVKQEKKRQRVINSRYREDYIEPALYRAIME

Potency, inconclusive:
COc1ccc(OC)c(C2Nc3c(Cl)ccc(C(=O)O)c3C3C=CCC32)c1 (stereo unspecified) 44.7 µM [inhibitor, full curve, poor fit]
Nn1c(SC/C=C/c2ccccc2)nnc1-c1ccncc1 31.6 µM [inhibitor, partial curve]
CCOc1ccc(N(C)Cc2cc(=O)oc3ccc(OCC)cc23)cc1 11.2 µM [inhibitor, full curve]
COc1ccc(OCC(=O)NCCc2c[nH]c3ccccc23)cc1 100 µM [inhibitor, partial curve]
CCOC(=O)c1c(-c2ccc(C)o2)csc1NC(=O)CSc1ncn[nH]1 89.1 µM [inhibitor, partial curve]
Cc1nonc1OCCNc1ccc([N+](=O)[O-])cc1[N+](=O)[O-] 70.8 µM [inhibitor, single point]
O=C1CC(=C(c2ccccc2)c2ccccc2)C(=O)N1CCCCN1CCN(c2cccc(Cl)c2)CC1 63.1 µM [inhibitor, partial curve]
CCc1cc2c(NCCN3CCCCC3)ncnc2s1 89.1 µM [inhibitor, single point]
O=C(NNC(=S)NC1CCCCC1)c1ccccc1O 22.4 µM [inhibitor, partial curve]
CSCCC(/C(O)=C(\C#N)c1nc2ccccc2[nH]1)N1C(=O)c2ccccc2C1=O (stereo unspecified) 79.4 µM [inhibitor, partial curve]
N#C/C(=C\C=C\c1ccccc1[N+](=O)[O-])C(=O)NCc1ccccc1 28.2 µM [inhibitor, full curve]
CSc1c(C#N)c(N)nc2sc(C(=O)c3ccccc3)c(N)c12 56.2 µM [inhibitor, partial curve]
O=c1c(Oc2ccccc2F)coc2cc(OCc3cnn(-c4ccccc4)c3)ccc12 63.1 µM [inhibitor, partial curve]
COc1cc(/C=C/C(=O)CC(=O)/C=C/c2ccc(O)c(OC)c2)ccc1O 79.4 µM [inhibitor, partial curve]
CCOC(=O)c1cc2c(=O)n3ccccc3nc2n(Cc2ccco2)c1=NC(=O)c1ccccc1Br 89.1 µM [inhibitor, partial curve]
O=C(NC(=S)N1CCCC(O)C1)c1ccco1 (stereo unspecified) 50.1 µM [inhibitor, partial curve]
CCOc1ccc(C2C(C#N)=C(N)SC(N)=C2C#N)c(OCC)c1 50.1 µM [inhibitor, partial curve]
O=C(COC(=O)c1cc([N+](=O)[O-])ccc1N1CCOCC1)Nc1ccc(Cl)cc1 56.2 µM [inhibitor, partial curve]
CCS(=O)(=O)N1CCc2cc(C(=O)Nc3ccc(Br)cc3F)ccc21 56.2 µM [inhibitor, partial curve]
COC(=O)c1[nH]c2cc(OC)ccc2c1NC(=O)CN1CCN(c2cccc(C)c2)C(C)C1 (stereo unspecified) 12.6 µM [inhibitor, partial curve]
COc1ccccc1OCC(=O)N(Cc1ccco1)Cc1ccccc1F 100 µM [inhibitor, partial curve]
O=c1cc(COc2ccc(Cl)cc2Cl)nc2scc(-c3ccccc3)n12 14.1 µM [inhibitor, partial curve]
Cc1ccc(C(=O)N/C(=C/c2ccc(-c3cc(C(F)(F)F)ccc3Cl)o2)C(=O)NCc2cccnc2)cc1 56.2 µM [inhibitor, partial curve, poor fit]
CCOC(=O)/C(C#N)=C/c1c(N2CCN(c3cccc(Cl)c3)CC2)nc2c(C)cccn2c1=O 5.62 µM [inhibitor, full curve, poor fit]
CC(C)(C)c1ccc(C(=O)NCCCN2CCN(CCCNC(=O)c3ccc(C(C)(C)C)cc3)CC2)cc1 22.4 µM [inhibitor, single point]
O=C(Cn1nc(-c2ccccc2)ccc1=O)NCCN1CCN(c2cccc(Cl)c2)CC1 79.4 µM [inhibitor, partial curve]
O=C(CN1C(=O)COc2ccc(S(=O)(=O)NC3CCCC3)cc21)Nc1ccc(Cl)cc1F 89.1 µM [inhibitor, single point]
O=C(COc1ccc(-c2ccccc2)cc1)N/N=C/c1cc(O)ccc1Br 31.6 µM [inhibitor, full curve, poor fit]
CCCc1c(C(=O)NNc2ccc(C)cc2)cnn1-c1ccccc1 17.8 µM [inhibitor, full curve]
COc1cc2c(cc1OC)CN(c1ncccc1[N+](=O)[O-])CC2 56.2 µM [inhibitor, partial curve]
Cc1cccn2c(=O)c(/C=N/O)c(N3CCOCC3)nc12 50.1 µM [inhibitor, partial curve]
NC(CSC1(c2ccccc2)c2ccccc2-c2ccccc21)C(=O)O (stereo unspecified) 50.1 µM [inhibitor, partial curve]
COc1cc(C(c2c(C)[nH][nH]c2=O)c2c(C)[nH][nH]c2=O)ccc1OCc1ccc([N+](=O)[O-])cc1 50.1 µM [inhibitor, partial curve]
COc1ccccc1NC(=O)C1=C(C)Nc2ncnn2C1c1ccccc1C (stereo unspecified) 100 µM [inhibitor, single point]
O=C(O)c1ccc(/C=N/NC(=O)c2cc3c(ccc4ccccc43)o2)cc1 56.2 µM [inhibitor, partial curve, poor fit]

Potency, active:
NC(=O)NC(=O)CC1S/C(=N/N=C2/NC(=O)CS2)NC1=O (stereo unspecified) 28.2 µM
O=C(Nc1nnc(-c2ccc(F)cc2)o1)C1CCCN1S(=O)(=O)c1cccs1 (stereo unspecified) 44.7 µM
COc1ccc(CN2CCN(S(=O)(=O)c3ccccc3)CC2)c(OC)c1OC 22.4 µM
COc1cnc(-c2ccccn2)nc1Oc1ccccc1 89.1 µM
O=C(CCl)c1ccc(Cc2ncc(C(F)(F)F)cc2Cl)s1 79.4 µM
Fc1ccccc1/C=N/Nc1nn[nH]n1 79.4 µM
COc1ccc(CNC(=O)C[C@H]2C[C@H](C(=O)N3CCCCC3)[C@@]3(C)c4[nH]c5cc(-c6ccco6)ccc5c4CCN3C2=O)cc1OC 56.2 µM
O=[N+]([O-])c1ccccc1CN1CCN(S(=O)(=O)c2ccccc2)CC1 20 µM
CN(C)CC(C)(C)CNS(=O)(=O)c1ccc(Cl)c(Cl)c1 17.8 µM
O=C(CSc1nc(NS(=O)(=O)c2ccccc2)cc(=O)[nH]1)Nc1ccc(F)cc1 56.2 µM
COc1ccc(-c2[nH]c(-c3ccc(O)cc3)nc2-c2ccccc2)cc1 63.1 µM
Cc1ccccc1C1=C/C(=C(\SS/C(C(=O)c2ccc(OCC(=O)O)c(Cl)c2Cl)=C2\C=C(c3ccccc3C)SS2)C(=O)c2ccc(OCC(=O)O)c(Cl)c2Cl)SS1 28.2 µM
Fc1cc(F)cc(-c2oncc2-c2nnnn2-c2ccccc2)c1 79.4 µM
C=CCOC(=O)c1[nH]c2c(c1C)C(=O)CC(c1ccco1)C2 (stereo unspecified) 20 µM
Cc1cc(C(F)(F)F)c(C#N)c(N2CCOCC2)n1 28.2 µM
CCOC(=O)c1n[nH]n2c1nc(=S)c1ccccc12 89.1 µM
COc1cc(/C=C2/C(=O)N(c3ccc(Br)cc3)N=C2C)cc(OC)c1OC 35.5 µM
CCc1ccc(Nc2n[n+](-c3ccccc3)c(-c3ccc(C(=O)O)cc3)s2)cc1 79.4 µM
Cc1ccc(NC(=O)CN2C(=O)S/C(=C\c3cccn3-c3cccc(C(=O)O)c3)C2=O)c(C)c1 22.4 µM
Cc1sc2ncn(CC(=O)N3CCC(C(N)=O)CC3)c(=O)c2c1S(=O)(=O)N1CC(C)CC(C)C1 (stereo unspecified) 100 µM
O=C1C(SCCO)=C(SCCO)C(=O)c2ccccc21 8.91 µM
CC[n+]1c(/C=C/C=C/N(C(C)=O)c2ccccc2)sc2ccccc21 79.4 µM

Activity change, negative = inhibition, inactive:
CC(=O)c1cc2c(cc1NC(=O)CCCC(=O)O)OCO2 -2.56%
O=C(NCC1CCCO1)c1cc(-c2ccc(F)cc2)no1 (stereo unspecified) 5.59%
CC(=O)Nc1ccc(NC(=O)/C(=C/c2ccco2)NC(=O)c2ccccc2)cc1 -25.8%
COc1ccc(CCN2C(=O)NC(NC(=O)CC(C)C)(C(F)(F)F)C2=O)cc1OC (stereo unspecified) -23%
CCOc1ccc(NC(=O)Cn2c(=O)n(CCCC(=O)NCCc3ccc(Cl)cc3)c(=O)c3ccccc32)cc1 -11%
O=C(Cn1cc(F)c(=O)[nH]c1=O)NCCO -18.6%
Cc1cc(C)n(-c2nc(C)nc(N)n2)n1 -13.7% [at 11.4 µM]
COc1ccc(-c2cc(C(=O)Nc3cc(Br)ccc3O)no2)cc1 -22.4%
COc1ccc(CN2CCCC(N3CCc4ccccc4C3)C2)c(O)c1 (stereo unspecified) -25.6%
O=S(=O)(Nc1nc2ccccc2nc1Cl)c1ccc2ccccc2c1 -8.22%
COc1cccc2cc(-c3cc(=O)oc4cc(C)c(O)cc34)oc12 -21.7%
Cc1ccc(NC(=O)CSc2nc(=O)n(CCN(C)C)c3c2CCCC3)cc1Cl -21.6%
COc1cccc(NC(=O)CCC(=O)Nc2ccc3nc(N4CCOCC4)cc(C)c3c2)c1 10.2%
COCc1ccc(C(=O)OC(C)C(=O)Nc2c(C)n(C)n(-c3ccccc3)c2=O)cc1 (stereo unspecified) -9.48%
